Measurements published in patent publication US5478816A, “Liquid vitamin formulations containing vitamin D esters” (Bristol-Myers Squibb Company, priority 1993, dated 1995).
Several values for one entry are separate records, joined by “and”; a condition that tells them apart may be missing. Identical values can stand only once. The source gives many values for each of these; only a part stands here.

Experiment: Short-term stability of vitamin D3 and vitamin D3 palmitate in liquid vitamin formulations at 40° C. (HPLC assay)
Format: physicochemical
Procedure: In addition to the above, the vitamin formulation contains flavorants, stabilizer of vitamins, and about 1.0% polysorbate 80 as surfactant. As appreciated by the skilled artisan, appropriate overages of vitamins are included in order to assure meeting the label claims. The example composition contains 1.86:1 ratio by weight of glycerine to water. The pH is 5.0 which is adjusted by using an appropriate ratio of ascorbic acid to sodium ascorbate.
Vitamin D was analyzed by a HPLC assay as described by Matthew G. Sliva, et al., "Reversed-Phase Liquid Chromatographic Determination of Vitamin D in Infant Formulas and Enteral Nutritionals," J Assoc. Off. Anal. Chem., 75, 566, 1992, except that saponification conditions of 70° C. for 40 minutes were employed.
Stability of vitamins D3 and D3 palmitate were compared in various vitamin formulations containing different amounts of water and glycerin and at different pHs. The other ingredients and method of pH adjustment were as described in Example 1. The results are in Tables 2-5. Each batch number represents a different liquid vitamin formulation. The amount of glycerin varied between 650 and 850 mg/ml, depending upon the amount of water. "Vit" represents vitamin, "Desc." represents description,"Vit D3" represents vitamin D3, and "Vit D3P" or "D3 P" represents vitamin D3 palmitate. Table 1 lists the half-life (T50) values, i.e., time to degrade to 50% of the starting concentration of vitamins D3 and D3 palmitate at 40° C., These T50 values were calculated by fitting the data to first order degradation rate.

[1] = pH 5.0, 390 mg/ml water, age 16 weeks, Batch #13 (D3), #14 (D3 P)
[2] = pH 5.6, 252 mg/ml water, age 0 weeks, Batch #17 (D3), #18 (D3 P)
[3] = pH 5.6, 252 mg/ml water, age 1 week, Batch #17 (D3), #18 (D3 P)
[4] = pH 5.6, 252 mg/ml water, age 2 weeks, Batch #17 (D3), #18 (D3 P)
[5] = pH 5.6, 252 mg/ml water, age 4 weeks, Batch #17 (D3), #18 (D3 P)
[6] = pH 5.6, 252 mg/ml water, age 8 weeks, Batch #17 (D3), #18 (D3 P)
[7] = pH 5.6, 252 mg/ml water, age 12 weeks, Batch #17 (D3), #18 (D3 P)
[8] = pH 5.6, 252 mg/ml water, age 16 weeks, Batch #17 (D3), #18 (D3 P)
[9] = pH 5.6, 390 mg/ml water, age 0 weeks, Batch #19 (D3), #20 (D3 P)
[10] = pH 5.6, 390 mg/ml water, age 1 week, Batch #19 (D3), #20 (D3 P)
[11] = pH 5.6, 390 mg/ml water, age 2 weeks, Batch #19 (D3), #20 (D3 P)
[12] = pH 5.6, 390 mg/ml water, age 4 weeks, Batch #19 (D3), #20 (D3 P)
[13] = pH 5.6, 390 mg/ml water, age 8 weeks, Batch #19 (D3), #20 (D3 P)
[14] = pH 5.6, 390 mg/ml water, age 12 weeks, Batch #19 (D3), #20 (D3 P)
[15] = pH 5.6, 390 mg/ml water, age 16 weeks, Batch #19 (D3), #20 (D3 P)

Row | SMILES | Vitamin D content on storage [1] | Vitamin D content on storage [2] | Vitamin D content on storage [3] | Vitamin D content on storage [4] | Vitamin D content on storage [5] | Vitamin D content on storage [6] | Vitamin D content on storage [7] | Vitamin D content on storage [8] | Vitamin D content on storage [9] | Vitamin D content on storage [10] | Vitamin D content on storage [11] | Vitamin D content on storage [12] | Vitamin D content on storage [13] | Vitamin D content on storage [14] | Vitamin D content on storage [15] | Vitamin D content on storage (pH 5.0, 390 mg/ml water, age 12 weeks, Batch #13 (D3), #14 (D3 P)) | Vitamin D content on storage (pH 5.0, 435 mg/ml water, age 8 weeks, Batch #15 (D3), #16 (D3 P)) [IU/ml] | Vitamin D content on storage (pH 5.0, 435 mg/ml water, age 12 weeks, Batch #15 (D3), #16 (D3 P))
1 | C=C1CC[C@H](OC(=O)CCCCCCCCCCCCCCC)C/C1=C/C=C1\CCC[C@]2(C)[C@@H]([C@H](C)CCCC(C)C)CC[C@@H]12 [Vitamin D3 P, vitamin D3 palmitate] | 492 IU/ml | 418 IU/ml and 421 IU/ml | 385 IU/ml and 400 IU/ml | 371 IU/ml | 338 IU/ml and 330 IU/ml | 286 IU/ml and 287 IU/ml | 232 IU/ml and 237 IU/ml | 214 IU/ml and 212 IU/ml | 424 IU/ml and 416 IU/ml | 396 IU/ml and 395 IU/ml | 396 IU/ml and 400 IU/ml | 374 IU/ml and 370 IU/ml | 341 IU/ml | 295 IU/ml and 302 IU/ml | 279 IU/ml and 276 IU/ml | – | – | –
2 | C=C1CC[C@H](O)C/C1=C/C=C1\CCC[C@]2(C)[C@@H]([C@H](C)CCCC(C)C)CC[C@@H]12 [Vitamin D3, vitamin D3] | 60.8 IU/ml and 84.3 IU/ml | 439 IU/ml and 438 IU/ml | 441 IU/ml and 442 IU/ml | 411 IU/ml and 396 IU/ml | 390 IU/ml and 394 IU/ml | 333 IU/ml and 354 IU/ml | 310 IU/ml and 300 IU/ml | 245 IU/ml and 265 IU/ml | 450 IU/ml and 454 IU/ml | 420 IU/ml and 438 IU/ml | 369 IU/ml and 377 IU/ml | 317 IU/ml and 307 IU/ml | 193 IU/ml and 184 IU/ml | 110 IU/ml and 114 IU/ml | 87.5 IU/ml and 82.5 IU/ml | 100 IU/ml and 107 IU/ml | 170 | 107 IU/ml and 103 IU/ml
